Results: PubChem BioAssay AID588579 (National Center for Advancing Translational Sciences (NCATS), 2011)
“And” between values parts separate entries of the source, which are not always exact repeats. Equal entries are not always repeated. Among all 400,000 compounds or so, about 2,200 (0.55%) were called active. The shares of active, inactive and inconclusive entries below differ from those in the screen. The call rests on the fitted dose curve; in most records, active means well fitted inhibition curve with a large enough effect; inconclusive means small, poorly fitted or top-dose-only effect, or another doubt; inactive means no such curve, though single readings can be large or run the other way. Potencies beside an inconclusive call are fits to weak or partial responses and may not hold up.

biological target: DNA polymerase kappa (Homo sapiens) (UniProt Q9UBT6); test: qHTS for Inhibitors of Polymerase Kappa; settings: purified Pol kappa, fluorescent DNA synthesis assay, 10 min; series mostly up to 107 µM; activity, negative = inhibition: at the top concentration
UniProt Q9UBT6, sequence (Q9UBT6 whole entry, looked up): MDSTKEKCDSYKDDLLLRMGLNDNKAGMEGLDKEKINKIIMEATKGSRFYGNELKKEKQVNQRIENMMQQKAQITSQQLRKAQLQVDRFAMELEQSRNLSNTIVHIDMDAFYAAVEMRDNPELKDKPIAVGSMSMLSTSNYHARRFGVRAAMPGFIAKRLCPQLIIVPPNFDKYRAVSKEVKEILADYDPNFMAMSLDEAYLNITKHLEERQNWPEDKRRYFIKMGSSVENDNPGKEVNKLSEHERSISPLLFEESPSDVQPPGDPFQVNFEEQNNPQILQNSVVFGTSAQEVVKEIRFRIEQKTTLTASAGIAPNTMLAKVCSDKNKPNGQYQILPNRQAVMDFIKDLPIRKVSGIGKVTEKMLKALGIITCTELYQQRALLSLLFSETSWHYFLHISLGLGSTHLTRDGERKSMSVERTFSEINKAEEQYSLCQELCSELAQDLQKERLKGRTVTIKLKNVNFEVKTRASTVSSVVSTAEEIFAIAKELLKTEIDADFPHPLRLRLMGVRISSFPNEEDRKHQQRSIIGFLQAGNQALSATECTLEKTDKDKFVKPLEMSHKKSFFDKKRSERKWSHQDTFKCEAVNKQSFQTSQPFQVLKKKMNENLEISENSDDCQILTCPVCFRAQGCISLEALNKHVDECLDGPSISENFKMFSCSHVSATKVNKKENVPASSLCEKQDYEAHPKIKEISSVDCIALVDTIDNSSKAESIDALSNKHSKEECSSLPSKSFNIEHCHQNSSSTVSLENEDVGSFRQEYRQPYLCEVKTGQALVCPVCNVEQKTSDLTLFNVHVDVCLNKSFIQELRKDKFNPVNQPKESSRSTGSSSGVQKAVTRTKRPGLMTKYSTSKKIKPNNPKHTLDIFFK
How it was run: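 Here, compound and 10 nM enzyme are combined for 15 min at room temperature; adding 50 nM substrate (final) starts DNA synthesis, tracked by fluorescence at 0 and 10 min against buffer-only wells.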
On the % scale 0 is the no-effect control and ±100 the full control effect; potency means the concentration at half of the fitted maximal effect; tags describe the fitted curve by direction and shape.

SMILES	Potency	activity, negative = inhibition
COC1=C/C(=C/c2c(N)n3nc(CC(=O)N4CCCCC4)sc3nc2=O)C=CC1=O	inconclusive: 79.4 µM [inhibitor, single point]	
CCn1c(SCC(=O)NCc2cccs2)nnc1-c1cccs1		inactive: -4.8%
O=c1c2c3nc4ccccc4nc3n(/N=C/c3ccco3)c2ncn1CCC1=CCCCC1	inconclusive: 39.8 µM [inhibitor, partial curve, poor fit]	
Cc1cc(=O)n2[nH]c(-c3ccsc3-n3c(C)ccc3C)cc2n1	active: 28.2 µM	
O=C(Cn1nc(-c2ccccc2)c2ccccc2c1=O)Nc1ccc2c(c1)nc1n2CCOC1	inconclusive: 89.1 µM [inhibitor, single point]	
COC(=O)C1=C(C)NC(C)=C(C(=O)OCCN(C)Cc2ccccc2)C1c1cccc([N+](=O)[O-])c1 (stereo not given)	inconclusive: 33.6 µM [inhibitor, partial curve, poor fit]	
O=C(CSc1nc2ccsc2c(=O)n1CC1CCC(C(=O)O)CC1)c1ccc(Cl)cc1 (stereo not given)	inconclusive: 89.1 µM [inhibitor, single point]	
Cc1ccc2c(c1)c(=O)c1ccccc1n2CCCC(=O)Nc1cc(Cl)ccc1C		inactive: 2.39%
COc1ccc(CC(=O)Nc2ccc(-c3nc4cc(C)ccc4o3)c(O)c2)cc1OC	inconclusive: 89.1 µM [inhibitor, partial curve, poor fit]	
O=S(=O)(O)c1ccc2c(N=Nc3ccc(S(=O)(=O)O)c4ccccc34)c(O)c(S(=O)(=O)O)cc2c1	active: 44.7 µM	
O=C(CSC1=NC(=O)C(c2ccccc2)C(=O)N1)Nc1ccccc1[N+](=O)[O-] (stereo not given)	inconclusive: 89.1 µM [inhibitor, single point]	
O=C(c1cc2c(ccc3ccccc32)oc1=O)N1CCN(CCO)CC1	inconclusive: 39.8 µM [inhibitor, single point]	
Cc1oc2c(cc(NS(=O)(=O)c3ccc(C(C)C)cc3)c3ccccc32)c1C(=O)O	inconclusive: 79.4 µM [inhibitor, partial curve, poor fit]	
O=C1N=c2ccc([N+](=O)[O-])cc2=C1c1sc(=O)[nH]c1O	active: 89.1 µM	
CC(=O)Oc1ccc2nonc2c1OC(C)=O	active: 3.16 µM	
Cc1ccc(S(=O)(=O)N2CCC(=O)N([C@H](COCc3ccc(C(F)(F)F)cc3)Cc3ccccc3)CC2)cc1	inconclusive: 39.8 µM [inhibitor, partial curve, poor fit]	
CC(/C=N/n1c(-c2ccncc2)n[nH]c1=S)=C\c1ccco1	active: 50.1 µM	
Cc1cc(C(=O)OCC(=O)NCc2ccco2)c(C)n1-c1ccccc1	active: 79.4 µM	
CO/N=C(\CS(=O)(=O)Cc1ccc(OC)cc1)c1ccc(Cl)cc1	inconclusive: 89.1 µM [inhibitor, single point]	
CCOC(=O)N(C(=O)c1ccccc1)c1ccccc1		inactive: 9.4%
COc1cc(C(=O)OCC(=O)N2CCCC2=O)cc(OC)c1C	inconclusive: 89.1 µM [inhibitor, single point]	
CC1=C(O)C(=O)C(C2=C(O)C(=O)C(C)=C(O)C2=O)=C(O)C1=O	inconclusive: 89.1 µM [inhibitor, single point]	
O=C1c2cccc3cc([N+](=O)[O-])cc(c23)C(=O)N1CCN1CCCC1	active: 79.4 µM	
CCCCCCCCCCCC1=C(O)C(=O)C=C(O)C1=O	inactive and inconclusive: 8.91 µM [inhibitor, partial curve, poor fit] and inconclusive: 31.6 µM [inhibitor, single point]	

SMILES	Potency	activity, negative = inhibition
COc1cccc2c(SCC(=O)N/N=C/c3ccc(O)c(O)c3)cc(C)nc12	active: 12.6 µM	
C=C1CCN(C(C(=O)O)C(C)C)S(=O)(=O)c2ccccc21 (stereo not given)	inconclusive: 89.1 µM [inhibitor, single point]	
O=C1C2CC=C(Cl)CC2C(=O)N1CCCCCCN1C(=O)C2CC=C(Cl)CC2C1=O (stereo not given)	active: 79.4 µM	
Cc1ccc(/C(O)=C/C(=O)C(=O)NNC(=O)C(O)(c2ccccc2)c2ccccc2)cc1	inconclusive: 89.1 µM [inhibitor, single point]	
Fc1ccc(Nc2nc3nonc3nc2Nc2cccc(C(F)(F)F)c2)cc1		inactive: -3.92%
O=C1NC(=S)S/C1=C/c1ccc(N2CCOCC2)o1	inconclusive: 17.8 µM [inhibitor, full curve, poor fit]	
O=C(Nc1cccc(-c2cscn2)c1)C1CCN(Cc2ccc(CO)o2)CC1	inconclusive: 89.1 µM [inhibitor, single point]	
O=C(O)c1ccc(/C=N/NC(=O)c2ccc(CN3c4cccc5cccc(c45)S3(=O)=O)cc2)cc1	inconclusive: 89.1 µM [inhibitor, single point]	
CCc1cc(C(=O)Nc2ccc(S(=O)(=O)NC3=NCCCCC3)cc2)sc1C	active: 50.1 µM	
Cc1ccc2c(c1)N(C(=O)CCC(=O)NCc1cccnc1)CC(C)O2 (stereo not given)	inconclusive: 89.1 µM [inhibitor, single point]	
O=c1[nH]c(/C=C2\C=Nc3ccccc32)c(O)n1Cc1ccccc1F		inactive: -4.15%
Cc1ccc(S(=O)(=O)N(CC(O)Cn2c3ccccc3c3ccccc32)c2cccc(C(=O)N(C)C)c2)cc1 (stereo not given)	active: 79.4 µM	
CNCc1ccccc1Sc1ccc(O)c(O)c1	active: 79.4 µM	
C=C(C)C(=O)Nc1cccc(C2=NOC3(C2)C[C@@H](C(N)=O)N(C(=O)C(=C)C)C3)c1 (stereo not given in full)	inconclusive: 50.1 µM [inhibitor, partial curve, poor fit]	
COc1ccc(Cc2c(N)nc(C)nc2N)cc1		inactive: -0.242%
O=c1[nH]nc(CSCc2ccccc2Cl)[nH]1	inconclusive: 39.8 µM [inhibitor, single point]	
C/C(=N/NC(=O)c1cc(O)c(O)c(O)c1)c1ccc([N+](=O)[O-])cc1	active: 12.6 µM	
COc1ccc(OC)c(-c2csc(NC(=O)CSc3ccccc3)n2)c1	inconclusive: 89.1 µM [inhibitor, partial curve, poor fit]	
CC(C)COc1ccc(C(=O)Nc2onc3c2CCCC3)cc1		inactive: 6%
COc1cc(-c2[nH]nc3c2C(c2ccoc2)C(C#N)=C(N)O3)cc(OC)c1OC (stereo not given)	inconclusive: 89.1 µM [inhibitor, partial curve, poor fit]	
O=c1cc(CSc2nnnn2-c2ccccc2)nc2scc(-c3ccccc3)n12	inconclusive: 89.1 µM [inhibitor, partial curve, poor fit]	
Cc1ccc(/C=C2\Oc3c(ccc(O)c3CN3CCN(CCO)CC3)C2=O)cc1		inactive: -21.6%
O=[N+]([O-])c1cc([N+](=O)[O-])c2nonc2c1Nc1ccccc1O		inactive: -7.08%
COc1ccc(OC)c(CCNC(=O)CSc2ccsc2[N+](=O)[O-])c1	inconclusive: 89.1 µM [inhibitor, single point]	

SMILES	Potency	activity, negative = inhibition
Nc1nonc1C(=Nc1ccc(Br)cc1)NO		inactive: -4.84%
CCc1cc(-c2n[nH]c(C)c2-c2ccc3c(c2)OCCO3)c(O)cc1O	inconclusive: 39.8 µM [inhibitor, partial curve, poor fit]	
CCOC(=O)C1=C(C)S/C(=C\N(C)C)C1=O	inconclusive: 89.1 µM [inhibitor, partial curve, poor fit]	
CC(c1ccccc1)N1CC(C(=O)Nc2nccs2)CC1=O (stereo not given)	inconclusive: 89.1 µM [inhibitor, single point]	
CN(C)C(=O)OC1=C(c2ccccc2)Sc2ccccc2-n2cccc21		inactive: -1.23% [at 19.4 µM]
Cc1ccc(C)n1-c1sc2c(c1C(=O)O)CCCC2	active: 50.1 µM	
Cc1c(C(=O)N(C)CC(=O)Nc2cccc(F)c2)oc2c(Cl)cccc12	inconclusive: 89.1 µM [inhibitor, single point]	
S=C(NCCCN1CCOCC1)Nc1cccc(-c2nnc3n2CCCCC3)c1		inactive: -15.2%
COc1ccc(S(=O)(=O)N(C)CC(=O)Nc2ccc3c(c2)OCCO3)cc1	inconclusive: 12.6 µM [inhibitor, partial curve, poor fit]	
COc1ccc(CNC(=O)CCc2c(C)c3cc4c(C)c(C)oc4cc3oc2=O)cc1		inactive: -5.75%
CCOC(=O)C(C)N1C(=O)S/C(=C/c2cc(C)n(-c3ccccn3)c2C)C1=O (stereo not given)	active: 89.1 µM	
Cc1c(N2C(=O)c3ccc4c5c(ccc(c35)C2=O)CC4)c(=O)n(-c2ccccc2)n1C	active: 50.1 µM	
N#CCCN(C(=O)COc1ccc(F)cc1Br)c1ccccc1F		inactive: -4.03%
Cc1cc(C(F)(F)F)c(C#N)c(SCC(=O)Nc2nc3cc(Br)ccc3s2)n1		inactive: -19.3%
COCCN(C(=O)COC(=O)c1cc2c(s1)CCCC2)c1c(N)n(Cc2ccccc2)c(=O)[nH]c1=O	inconclusive: 89.1 µM [inhibitor, single point]	
Cc1cc(C(=O)COC(=O)c2ccc(O)cc2)c(C)n1CC1CCCO1 (stereo not given)	inconclusive: 89.1 µM [inhibitor, single point]	
Cc1ccc(C(=O)NCc2ccco2)c(C)c1		inactive: -11.2%
O=C(O)c1ccc(/C=N/NC(=O)c2cc3ccccc3cc2O)cc1	active: 50.1 µM	
O=S(=O)(c1ccc(F)cc1)N1CN(Cc2ccco2)c2nc3ccccc3nc21	inconclusive: 89.1 µM [inhibitor, single point]	
CCC(Sc1nc(-c2ccccc2)[nH]c1S(=O)(=O)c1ccc(C)cc1)C(=O)O (stereo not given)		inactive: -4.94%
Cc1occc1-c1nnc(SCC(=O)NC(C)(C)C)n1CC(C)C		inactive: -3.38%
O=C(Nc1ccc(N2CCN(c3ccc(O)cc3)CC2)cc1)Oc1ccccc1		inactive: -8.38%
